# Data from publication PMC6919601, “Identification of Plasmodium dipeptidyl aminopeptidase allosteric inhibitors by high throughput screening” (PLoS ONE, 2019).
# Screen size: about 110,000 compounds; about 230 (0.21%) showed an effect of 50% or more. The list shows a part of the results.
# Target: DPAP1 (Plasmodium falciparum, UniProt Q8IIJ9)
# Experiment: primary screen, percent inhibition; read by cleavage of a fluorogenic dipeptide substrate; higher = more effect of the substance
# Parameters: species or system P. falciparum D10 trophozoite lysates; single well
# 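Further: 30 min substrate incubation versus DMSO and 10 µM JCP410 controls.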
# Sequence of DPAP1 (Q8IIJ9 whole entry, looked up): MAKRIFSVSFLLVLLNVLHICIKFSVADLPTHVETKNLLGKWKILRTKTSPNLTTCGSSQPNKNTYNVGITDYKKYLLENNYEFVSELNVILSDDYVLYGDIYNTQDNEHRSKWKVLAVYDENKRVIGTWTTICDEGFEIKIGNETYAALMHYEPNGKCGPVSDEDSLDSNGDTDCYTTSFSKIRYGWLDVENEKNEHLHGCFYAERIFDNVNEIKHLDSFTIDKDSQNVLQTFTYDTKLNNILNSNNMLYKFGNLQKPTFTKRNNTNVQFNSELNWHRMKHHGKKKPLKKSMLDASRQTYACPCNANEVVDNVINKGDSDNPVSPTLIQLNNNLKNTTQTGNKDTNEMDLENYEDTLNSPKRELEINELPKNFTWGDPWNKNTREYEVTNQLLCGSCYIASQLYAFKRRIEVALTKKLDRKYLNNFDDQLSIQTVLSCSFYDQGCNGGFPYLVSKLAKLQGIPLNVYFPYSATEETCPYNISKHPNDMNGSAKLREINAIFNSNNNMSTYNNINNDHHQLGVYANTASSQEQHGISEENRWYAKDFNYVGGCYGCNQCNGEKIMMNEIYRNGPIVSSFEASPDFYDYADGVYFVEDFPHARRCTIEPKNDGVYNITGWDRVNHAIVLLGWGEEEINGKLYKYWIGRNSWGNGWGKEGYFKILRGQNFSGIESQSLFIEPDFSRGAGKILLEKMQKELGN
row,SMILES,% Inhibition @ 10 uM
1,COC(=O)c1sc(N2C(=O)c3oc4ccccc4c(=O)c3C2c2cccc(O)c2)nc1C (stereo not shown),1.19%
2,CC(C)C[C@H](NC(=O)c1ccc(Oc2cccnc2)cc1)C(=O)NCC#N,3.66%
3,NS(=O)(=O)c1ccc(CNC(=O)c2ccco2)cc1,-3.78%
4,C=CCSc1nc2ccccc2n1CC(=O)O,4.41%
5,CS(=O)(=O)N(CC(=O)NCc1ccccc1Cl)c1cc(Cl)ccc1Cl,2.76%
6,CC(C)CNCC(=O)Nc1sc2c(c1C(=O)Nc1ccc(Br)cc1)CCC2,-6.07%
7,CCCc1nnc2sc(NC(=O)c3cc(OCC)c(OCC)c(OCC)c3)nn12,-2.79%
8,COc1ccc(C(C)(C)C)cc1NC(=O)C1CC1C (stereo not shown),-5.35%
9,CCOC(=O)C1=C(CN2CCC(c3ccccc3)C2)NC(=O)NC1c1ccc(OC)cc1 (stereo not shown),1.93%
10,COCCCNC(=O)C1CCCN(c2nnc(C)c3c(C)n(-c4ccc(Cl)cc4)nc23)C1 (stereo not shown),0.535%
11,Cc1oc2ncn(C)c(=O)c2c1C(=O)NC1CCCCC1,1.15%
12,Cc1ccc(C)c(S(=O)(=O)c2nnn3c2nc(NCCc2ccccc2)c2sccc23)c1,-10.8%
13,COc1ccc2c(=O)c(Oc3ccccc3)c(C(F)(F)F)oc2c1OC,-7.02%
14,Cc1ccc(N2CCCn3c2cc(C)c(C#N)c3=O)cc1C,-3.16%
15,CCc1nnc(NC(=O)CSc2nc(SC)ns2)s1,2.21%
16,C/C=C(\C)CN1CCN(C(C)=O)CC1,0.0792%
17,CC1CCC2C(=O)N(c3cccc(Cl)c3)C(=O)C2C1 (stereo not shown),-8.06%
18,O=C1C=C(NCCOC23CC4CC(CC(C4)C2)C3)C2(CCCCC2)O1,-1.69%
19,CCN(Cc1ccccc1)C(=O)Cn1c(=O)cc(C(F)(F)F)c2c(C)nn(-c3cccc(F)c3)c21,2.31%
20,O=C(CN1C(=O)C(=O)c2ccccc21)Nc1ccc(Cl)cc1,1.79%
21,Cc1ccccc1Cn1c(CCNC(=O)Cc2ccccc2)nc2ccccc21,-6.55%
22,COc1ccc(N(CC(=O)Nc2cc(Cl)cc(Cl)c2)S(C)(=O)=O)cc1OC,2.75%
23,Cc1cc(C)c(C#N)c(SCC(=O)c2ccc(F)cc2)n1,5.11%
24,O=C(Nc1nccs1)c1cc2cc(Br)ccc2oc1=O,5.01%
25,COc1ccccc1C(=O)N(Cc1nc(-c2ccc(Cl)cc2)no1)C(C)C,1.66%

row,SMILES,% Inhibition @ 10 uM
1,CC(C)N(Cc1nc(-c2ccc(Cl)cc2)no1)C(=O)CC(C)(C)C,-5.58%
2,CC1C2CC(C(S(N)(=O)=O)C2=O)C1(C)C (stereo not shown),2.55%
3,COc1cc(NC(=O)c2ccccc2F)ccc1NC(=O)c1ccco1,0.475%
4,COc1cc(NS(=O)(=O)c2ccc(NC(=O)c3ccc(Br)s3)cc2)nc(OC)n1,7.04%
5,COC(=O)c1conc1-c1cccnc1,-0.711%
6,CC1CC(C)CN(C(=O)CCCc2c[nH]c3ccccc23)C1 (stereo not shown),0.238%
7,NC1=C(c2nc3ccccc3[nH]2)C(=O)CN1Cc1ccco1,3.74%
8,CCCCn1c2ccccc2n2c(C(=O)OC)c(C)nc12,-4.98%
9,CCSc1nnc(NC(=O)Cn2cc(S(=O)(=O)NC)c(S(=O)(=O)NC)c2)s1,0.709%
10,CCN(CC)c1ccc(Nc2nc(-c3c(C)nc4ncccn34)cs2)cc1,-0.711%
11,COc1cc(OC)c(-c2nnc3n(Cc4ccccc4)c(=O)c4ccccc4n23)cc1OC,-5.37%
12,CCSc1nc2c(c(=O)[nH]c(=O)n2C)n1CCc1ccccc1,4.67%
13,CCCCc1n[nH]c(SCC(=O)Nc2ncccn2)n1,2.03%
14,O=c1[nH]c(=O)n(Cc2ccccc2)c2c1C(C(F)(F)F)(C(F)(F)F)NC(c1ccco1)=N2,1.57%
15,C=CCN1C(=O)N/C(=C/c2ccc(OC(C)CC)c(Br)c2)C1=O (stereo not shown),3.68%
16,COc1ccccc1N1CCN(Cc2ccc(OC)c(C)c2C)CC1,0.847%
17,Cc1cc(C)nc(N2CCNCC2)n1,-3.75%
18,COc1ccc(OC)c(N(CC(=O)Nc2ccc(C(C)C)cc2)S(C)(=O)=O)c1,-1.43%
19,Cc1c(Cl)cccc1NC(=O)CN1C(=O)c2cccc3cccc1c23,-0.949%
20,COc1ccc(-c2[nH]ncc2/C=C2\OC(=O)c3c2cc(C)nc3S)cc1,26%
21,CCn1cc(CN(C)C(=O)c2cc3n(n2)C(C(F)(F)F)CC(c2ccco2)N3)c(C)n1 (stereo not shown),-1.18%
22,CCOC(=O)C1CCCCN1Cc1cccc(F)c1 (stereo not shown),3.1%
23,Cc1ccc2[nH]c(C(F)C(F)(F)F)nc2c1 (stereo not shown),-5.5%
24,O=C1C=C(N2CCN(S(=O)(=O)c3ccccc3)CC2)C(=O)N1c1cccc(Cl)c1,-0.988%
